Test results from PubChem BioAssay AID2451 (National Center for Advancing Translational Sciences (NCATS), 2010).
Among all 290,000 compounds or so, about 2,100 (0.72%) were called active. This list was built around the results that the source calls inconclusive (neither active nor inactive); the mix of calls is not that of the screen. Calls come from the whole dose curve; as a rule, active = well fitted inhibition curve with a large enough effect; inconclusive = small, poorly fitted or top-dose-only effect, or effect the other way; inactive = flat fitted curve, though single readings scatter. Potencies beside an inconclusive call are fits to weak or partial responses and may not hold up.

target: Fructose-bisphosphate aldolase (Giardia intestinalis (strain ATCC 50803 / WB clone C6)) (UniProt A8B2U2); test: qHTS Assay for Inhibitors of Fructose-1,6-bisphosphate Aldolase from Giardia Lamblia; conditions: purified Giardia FBPA; series mostly up to 59.6 µM; note: nearly all actives have a fitted effect of over 55% in size
Outline: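 40 nM FBPA preincubated 10 min at RT with compound (up to 57.5 uM final), then substrate plus GAPDH/TPI/NAD/arsenate coupling and diaphorase/resazurin added. Fluorescence read after 20 min at RT, 525/598 nm.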
Potency is the fitted concentration of half-maximal effect; tags give direction and shape of the fitted curve.

Chain of UniProt A8B2U2 (A8B2U2 whole entry, looked up): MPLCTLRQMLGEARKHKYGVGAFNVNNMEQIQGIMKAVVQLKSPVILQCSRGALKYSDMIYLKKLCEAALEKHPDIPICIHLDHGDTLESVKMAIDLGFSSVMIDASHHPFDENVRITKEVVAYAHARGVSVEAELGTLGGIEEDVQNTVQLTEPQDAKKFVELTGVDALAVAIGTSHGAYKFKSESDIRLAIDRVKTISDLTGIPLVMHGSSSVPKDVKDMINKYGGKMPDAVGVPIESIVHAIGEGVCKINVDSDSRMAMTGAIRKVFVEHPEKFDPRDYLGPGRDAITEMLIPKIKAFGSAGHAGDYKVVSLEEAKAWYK

Compound	Potency
COc1ccc(N(CC(=O)NCc2ccco2)C(=O)CCC(=O)Nc2nccs2)cc1	inactive
N#CC1=C2SCN(Cc3ccco3)CN2C(=O)CC1c1cccc2ccccc12 (configuration not stated)	inconclusive: 2.81 µM [inhibitor, partial curve]
O=c1c(=O)n(O)c2ccccc2n1O	active: 17.7 µM
Nc1ccc(N2CCN(CCCCN3C(=O)C4CCCN4C3=O)CC2)cc1 (configuration not stated)	inconclusive: 19.9 µM [inhibitor, single point]
O=S(=O)(c1ccc2c(c1)OCCO2)N1CCNCC1	inconclusive: 25.1 µM [inhibitor, single point]
CCOc1ccc(NC(=O)CC2C(=O)N(CC)C(=S)N2NC(=O)c2ccncc2)cc1 (configuration not stated)	inconclusive: 15.8 µM [inhibitor, partial curve]
CC(/C=N/NC(=O)c1ccncc1)=C\c1ccco1	inconclusive: 6.29 µM [inhibitor, partial curve]
CN1CCc2cc3c(c4c2[C@H]1[C@H](O)c1ccccc1-4)OCO3	inconclusive: 0.5 µM [inhibitor, full curve]
COc1ccc(/C=N/NC(=O)c2nn(-c3ccccc3)c(=O)c3c(N)scc23)cc1	active: 2.51 µM
CCOC(=O)C(=O)C1(C(=O)OCC)Oc2cc(OC)cc(OC)c2C(=O)C1c1ccccc1 (configuration not stated)	inconclusive: 17.7 µM [inhibitor, single point]
N#C/C(=C(/O)CCl)c1nc2ccccc2[nH]1	inconclusive: 15.8 µM [inhibitor, partial curve]
CC(C)(C)C(=O)Nc1sc2c(c1C#N)CCC2	inactive
CC(=O)Nc1ccc(N2CCCC2)cc1	inconclusive: 8.89 µM [inhibitor, partial curve]
COc1cc(/C=N/O)ccc1OCc1ccc(Cl)cc1	inconclusive: 17.7 µM [inhibitor, single point]
CC1=CC(C)(C)Nc2ccccc21	inconclusive: 19.9 µM [inhibitor, single point]
C=CCn1c(=O)/c(=C/c2ccc(C)o2)s/c1=C(/C#N)C(=O)c1ccccc1	inconclusive: 11.2 µM [inhibitor, partial curve]
COc1ccc2c(c1)NP(=S)(Oc1ccccc1)N2 (configuration not stated)	inconclusive: 2.51 µM [inhibitor, full curve]
COc1ccccc1CNc1nc2nc(C)c(C)c(=O)n2[nH]1	inconclusive: 2.82 µM [inhibitor, partial curve]
Cc1ccc(C2=Nc3ccccc3N=C(C(Cl)Cl)C2)cc1	inconclusive: 19.9 µM [inhibitor, single point]
CC[n+]1c(/C=C2/C=C(C)CC(C)C2)sc2ccccc21 (configuration not stated)	inconclusive: 22.3 µM [inhibitor, single point]
CCCOc1ccc(OCCN2CCCC(C)C2)cc1 (configuration not stated)	inconclusive: 17.7 µM [inhibitor, partial curve]
COc1ccc(NC(=O)C2CCN(S(=O)(=O)c3c(C)noc3C)CC2)cc1OC	inconclusive: 35.5 µM [activator, single point]
CC(C)(C)OCC(O)CN1CCN(C(=O)c2ccccc2)CC1 (configuration not stated)	inconclusive: 15.8 µM [inhibitor, partial curve]
CCOC(=O)C(c1ccccc1)C(Nc1ccc(F)cc1)c1ccccn1 (configuration not stated)	inactive

Compound	Potency
CN=C1C([N+](=O)[O-])=CC=C2C1=NC1(CCCCC1)N2O	active: 5 µM
CCOc1ccc(/C=N/NC(N)=S)cc1	inconclusive: 15.8 µM [inhibitor, single point]
Clc1ccc(N=C2SCCS2)cc1	inactive
O=[N+]([O-])c1cc(-c2ccc(/C=N/c3nc4ccccn4c3-c3ccco3)o2)ccc1Cl	inconclusive: 15.8 µM [inhibitor, partial curve]
CCOC(=O)c1sc(NC(=O)c2ccc(OC(C)=O)cc2)nc1C	inactive
CCS(=O)(=O)c1ccc2oc(Nc3ccccc3C)nc2c1	inactive
COc1ccc(NC(=O)Nc2ccc3c(c2)N(C)C(=O)CS3)cc1OC	inconclusive: 17.7 µM [inhibitor, single point]
CCN1CC(CN(C)Cc2nc(-c3ccc(C(F)(F)F)cc3)oc2C)CC1=O (configuration not stated)	inactive
O=C(O)CSc1c2c(nc3cc(C(=O)N4CCOCC4)ccc13)CCCC2	inconclusive: 25.1 µM [inhibitor, single point]
O=C(Nc1ccc(F)cc1)c1ccc(-n2cncn2)c([N+](=O)[O-])c1	inconclusive: 15.8 µM [inhibitor, single point]
Cc1cnc(NC(=O)CN2CCCCC2)s1	active: 4.47 µM
CC(C(=O)N1CCCCC1)N1C(=O)c2ccccc2C1=O (configuration not stated)	inconclusive: 6.29 µM [activator, full curve]
CC(/C=C/c1ccc2c(c1)OCO2)=N/NC(=O)c1ccncc1	inconclusive: 17.7 µM [inhibitor, single point]
CCOC(=O)CSC1=C(C#N)C(C)C2=C(CCCC2=O)N1 (configuration not stated)	active: 15.8 µM
O=C(NNC(=S)NC(=O)c1ccccc1[N+](=O)[O-])c1ccccc1Cl	inconclusive: 19.9 µM [activator, single point]
O=C(c1cc2nc(-c3ccco3)cc(C(F)(F)F)n2n1)N1CCCc2ccccc21	inconclusive: 6.31 µM [activator, single point]
O=[N+]([O-])c1cc2oc3c(c2c(C=NCc2ccccc2)c1O)CCCC3	inconclusive: 3.15 µM [inhibitor, full curve]
Cc1c(/C=N/Nc2ccc(F)cc2)c(O)n(C)c(=O)c1C#N	inconclusive: 35.4 µM [inhibitor, single point]
N#CC12CCCCC1CC1CCCCC1(C#N)N2N (configuration not stated)	inconclusive: 17.7 µM [inhibitor, partial curve]
CCCCS(=O)(=O)Nc1ccc(C)cn1	active: 7.92 µM
CN(Cc1ccccc1)CC(O)COc1ccc(CNCc2nccn2C)cc1 (configuration not stated)	inconclusive: 31.5 µM [inhibitor, single point]
O=C(CSc1ccc2nnc(-c3ccccn3)n2n1)NCc1ccc2c(c1)OCO2	inactive
COc1ccc(OC)c2[nH]c(=O)c(CCNC(=O)c3cc4ccccc4o3)cc12	inactive
COc1ccc2c(c1)Sc1ccccc1N2CCN(C)C	inconclusive: 17.7 µM [inhibitor, partial curve]

Compound	Potency
COc1cccc(C2C(C#N)=C(N)Oc3c2oc(CO)cc3=O)c1 (configuration not stated)	inconclusive: 17.7 µM [inhibitor, single point]
COC(=O)CC1[C@@]2(C)C[C@]34OC5(C)OC6(C7CC(=O)OC(c8ccoc8)[C@]7(C)CCC6(O5)[C@]13C)C(OC(C)=O)[C@]4(OC(C)=O)C2OC(C)=O (some centres not stated)	inactive
CCN1/C(=C/C=C/C=C/C=C/c2sc3ccccc3[n+]2CC)Sc2ccccc21	inconclusive: 35.5 µM [inhibitor, single point]
Cc1cc(C2CC(=O)Nc3ccccc3S2)c(C)s1 (configuration not stated)	inconclusive: 17.7 µM [inhibitor, single point]
COc1ccccc1Nc1nnc(SCC(=O)c2cc(C)n(CC3CCCO3)c2C)s1 (configuration not stated)	inactive
O=c1cc(C(F)(F)F)[nH]c(=S)n1-c1ccccc1	inactive
COc1ccc(C2C(C#N)=C(N)OC(C(C)(C)C)=C2C#N)cc1OC (configuration not stated)	inconclusive: 19.9 µM [inhibitor, partial curve]
CCOC(=O)CN1NC2(CCCC(C)C2)NC1=S (configuration not stated)	inconclusive: 15.8 µM [inhibitor, partial curve]
O=C(N/N=C/c1ccc([N+](=O)[O-])o1)c1cn(-c2ccccc2)nc1-c1ccccc1	inactive
Cc1n[nH]c(C)c1CCCCOc1ccccc1[N+](=O)[O-]	inconclusive: 22.4 µM [inhibitor, partial curve]
CC(C)C(=O)NC(c1ccc(Cl)cc1Cl)c1ccc2cccnc2c1O (configuration not stated)	inconclusive: 28.2 µM [activator, single point]
Cn1c(N)c(C(=O)COC(=O)C2(c3ccc(F)cc3)CCCC2)c(=O)n(C)c1=O	inactive
O=S(=O)(NCc1csc(-c2ccccc2)n1)c1ccc(Cl)s1	inconclusive: 35.4 µM [inhibitor, single point]
COc1cc(NC(=O)NC(C)(C(F)(F)F)C(F)(F)F)cc(OC)c1OC	inconclusive: 15.8 µM [inhibitor, single point]
NC(Cc1ccc(O)c(O)c1)C(=O)O (configuration not stated)	active: 15.8 µM
COc1cc(CN2CCCC(C(=O)c3ccc4c5c(cccc35)CC4)C2)cc(OC)c1O (configuration not stated)	active: 7.92 µM
COc1ccc(S(=O)(=O)Nc2ccc(F)cc2F)cc1C(=O)N1CCOCC1	inactive
O=S(=O)(Cc1ccccc1)Nc1ccc(S(=O)(=O)N2CCCC2)cc1	inactive
Cc1nnc(N/N=C/c2ccc(-c3ccc(Br)cc3)o2)n1N	active: 15.8 µM
COc1ccc(CN2CCSCC2)c(OC)c1C	inconclusive: 25.1 µM [inhibitor, partial curve]
CN1C(=O)c2ccccc2C(C(=O)NCCCN2CCCC2)C1c1c[nH]c2ccccc12 (configuration not stated)	inconclusive: 31.5 µM [inhibitor, single point]
CC(C)CCOc1cccc(OCC(=O)O)c1	inconclusive: 17.7 µM [activator, single point]
CCOC(=O)N1CCN([N+]([O-])=NOc2cc(O/N=[N+](\[O-])N(CC)CC)c([N+](=O)[O-])cc2[N+](=O)[O-])CC1	inconclusive: 17.7 µM [inhibitor, partial curve]
CCOc1ccccc1N1CCN(c2nc(N)c(C#N)c(CC#N)c2C#N)CC1	inconclusive: 19.9 µM [inhibitor, partial curve]
